Molecular target: T1, human native unmodified procaspase-3 (huCasp3) (UniProt P42574)
T1 sequence: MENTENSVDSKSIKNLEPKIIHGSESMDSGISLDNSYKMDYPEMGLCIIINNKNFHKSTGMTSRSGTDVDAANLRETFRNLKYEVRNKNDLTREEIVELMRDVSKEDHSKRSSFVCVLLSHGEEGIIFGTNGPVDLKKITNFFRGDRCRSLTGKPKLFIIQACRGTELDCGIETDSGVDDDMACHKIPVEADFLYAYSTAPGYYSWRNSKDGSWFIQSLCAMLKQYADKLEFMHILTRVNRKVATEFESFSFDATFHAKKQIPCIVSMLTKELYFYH

Substance: human granzyme B secreted by stably transfected RBL-2H3 cells (letters omitted)
- Fluorescence of caspase-3 treated with granzyme B (DEVD-AMC substrate): 43500 fluorescence
